Earlier results on 9 sequences are cited in paper PMC11006913.

The list shows a part of the results.

What all share (conditions): PBM; conditions not shown; double strand, one strand shown; scale: upbm affinity estimate (log intensity, higher = more binding, comparable within an allelic series)
In data set [1] the target is HOXD13 I297V (Homo sapiens) (UniProt P35453).
Data set [2] deals with HOXD13 I322L (Homo sapiens) (UniProt P35453).
The target in data set [3] is HOXD13 N298S (Homo sapiens) (UniProt P35453).
In data set [4] the target is HOXD13 Q325K (Homo sapiens) (UniProt P35453).
Data set [5] concerns the target HOXD13 Q325R (Homo sapiens) (UniProt P35453).
Data set [6] addresses HOXD13 S316C (Homo sapiens) (UniProt P35453).
Data set [7] concerns the target HOXD13 R306W (Homo sapiens) (UniProt P35453).
For data set [8], the target named is PITX2 L100Q (Homo sapiens) (UniProt Q99697).
Data set [9] addresses PITX2 R108H (Homo sapiens) (UniProt Q99697).
Data set [10] concerns the target PITX2 R130W (Homo sapiens) (UniProt Q99697).
Data set [11] addresses PITX2 T114P (Homo sapiens) (UniProt Q99697).
In data set [12] the target is NKX2-5 K183E (Homo sapiens) (UniProt P52952).
For data set [13], the target named is NKX2-5 R161P (Homo sapiens) (UniProt P52952).
Data set [14] deals with NKX2-5 R190C (Homo sapiens) (UniProt P52952).
Data set [15] deals with PROP1 R112Q (Homo sapiens) (UniProt O75360).
Data set [16] concerns the target PROP1 R99Q (Homo sapiens) (UniProt O75360).
In a further data set the target is ISX (Homo sapiens) (UniProt Q2M1V0).
In the next data set the target is ISX R83Q (Homo sapiens) (UniProt Q2M1V0).

As to GATTTTTA [8-mer GATTTTTA], the binding signal is 11.4 in data set [1]; 10.9 in data set [2]; 11.3 in data set [3]; 11 in data set [4]; 11.2 in data set [5]; 11.1 in data set [6].

For the sequence GAGGGACC [8-mer GAGGGACC], the binding signal in data set [1] is 9.62; in data set [2], 9.49; in data set [3] it was 9.59; in data set [4], 9.42; in data set [5] it was 9.45; in [7], 9.41. The binding signal is 9.53 in [6]; 8.27 in [8]; 7.97 in data set [9]; 7.94 in data set [10]; 8.1 in data set [11].

For the sequence AGCCGCCG [8-mer AGCCGCCG], the binding signal in data set [1] is 9.61; in data set [2], 9.27; in data set [3], 9.46; in data set [4] it was 9.64; in [5], 9.45; in data set [7] it was 9.52. Further, the binding signal in [6] is 9.59; in [12] it was 10.1; in [13], 10.2; in data set [14] it was 10.

For the sequence CTGGGGGC [8-mer CTGGGGGC], the binding signal in data set [1] is 9.16; in data set [2], 9.16; in data set [3] it was 9.15; in data set [4], 9.44; in data set [5] it was 9.18; in [7], 9.15. The binding signal in [6] is 9.16; in data set [15] it was 10.7; in [16] it was 10.8.

Regarding CTTCTTAA [8-mer CTTCTTAA], the binding signal is 10.9 in data set [1]; 10.7 in data set [2]; 11.1 in data set [3]; 10.8 in [4]; 11.1 in [5]; 10.5 in data set [7]. The binding signal in data set [6] is 10.8.

Turning to TCGTAAAA [8-mer TCGTAAAA], the binding signal in [1] is 12.7; in data set [2], 12.8; in data set [3], 13; in data set [4], 10.7; in [5], 11.4; in data set [7], 12. Further, the binding signal in data set [6] is 12.7.

Take CCCGGCAG [8-mer CCCGGCAG]: the binding signal in data set [1] was 9.53; in [2] it was 9.59; in [3], 9.51; in [4] it was 9.63; in data set [5], 9.5; in data set [7], 9.39. Besides, the binding signal in [6] is 9.41; in data set [8], 8.35; in data set [9], 8.06; in [10], 7.89; in data set [11], 8.06.

Regarding CGGTACCG [8-mer CGGTACCG], the binding signal in [1] is 9.29; in data set [2] it was 9.36; in [3], 9.21; in data set [4], 9.13; in [5], 9.36; in data set [7], 9.3. The binding signal is 9.29 in data set [6]; 9.78 with ISX (Homo sapiens); 9.8 with ISX R83Q (Homo sapiens); 8.26 in [8]; 7.99 in data set [9]; 7.94 in data set [10]. Besides, the values for the binding signal in data set [11], in data set [15] and in data set [16] were 8.07, 10.9 and 10.9, respectively.

As to GCCCGCAC [8-mer GCCCGCAC], the binding signal in data set [1] was 9.41; in data set [2], 9.45; in data set [3], 9.27; in data set [4] it was 9.59; in data set [5], 9.31; in data set [7], 9.41. The binding signal was 9.39 in [6], 10.9 in data set [15] and 11 in data set [16].
